Data from the supplement of paper PMC4967469.
By IC50 is meant the dose at which the fit gives 50% viability; where the fit passes the top or lowest dose, that dose stands as a limit. For AUC the same curve is integrated over the 256-fold range of doses and scaled to a fraction: 1 means no effect, lower means more sensitive. An inferred top dose was calculated from the reported fits. For some assays here: Drugs with an entry number were screened twice under separate entries, and the two screens often disagree.

Columns and labels:
Assay in all cases: Viability of human cancer cell lines after 72 h of drug (GDSC screen)
SB-525334 = compound: Cc1cccc(-c2[nH]c(C(C)(C)C)nc2-c2ccc3nccnc3c2)n1 [SB-525334]; details: top dose 20 µM; top dose inferred
Method: (§1)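 Human cancer cell lines in 384-well plates, medium with 10% serum, drug for 72 h over a 256-fold dose range (nine 2-fold or five 4-fold steps up to the top dose). Adherent lines were fixed and stained with the nucleic acid dye Syto60, suspension lines read with resazurin; signal relative to control wells, capped at 0 and 100%. One two-parameter sigmoid per drug and line, fitted in a mixed model over all curves with the slope shared within a line.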

BMS-536924 = compound: Cc1cc(N2CCOCC2)cc2[nH]c(-c3c(NC[C@@H](O)c4cccc(Cl)c4)cc[nH]c3=O)nc12 [BMS-536924]; details: top dose 4 µM; screen: GDSC drug entry 1091; top dose inferred
Method: as §1

Olaparib = compound: O=C(c1cc(Cc2n[nH]c(=O)c3ccccc23)ccc1F)N1CCN(C(=O)C2CC2)CC1 [Olaparib]
Method: as §1

VX-702 = compound: NC(=O)c1ccc(N(C(N)=O)c2c(F)cccc2F)nc1-c1ccc(F)cc1F [VX-702]; details: top dose 2 µM; top dose inferred
Method: as §1

HG-5-113-01 = compound: CNC(=O)c1ccc(Nc2cc(Nc3ccccc3S(=O)(=O)C(C)C)c3cc[nH]c3n2)nc1 [HG-5-113-01]; details: top dose 10 µM; top dose inferred
Method: as §1

BIRB 0796 = compound: Cc1ccc(-n2nc(C(C)(C)C)cc2NC(=O)Nc2ccc(OCCN3CCOCC3)c3ccccc23)cc1 [BIRB 0796]; details: top dose 10 µM; top dose inferred
Method: as §1

Shikonin = compound: CC(C)=CC[C@@H](O)C1=CC(=O)c2c(O)ccc(O)c2C1=O [Shikonin]; details: top dose 16 µM; top dose inferred
Method: as §1

[1] = top dose 5 µM, screen: GDSC drug entry 1017, top dose inferred
[2] = top dose 10 µM, screen: GDSC drug entry 1495

Cell Line | AUC (SB-525334) | IC50 (SB-525334) [µM] | AUC (BMS-536924) | IC50 (BMS-536924) [µM] | AUC (Olaparib; [1]) | IC50 (Olaparib; [1]) [µM] | AUC (Olaparib; [2]) | IC50 (Olaparib; [2]) [µM] | AUC (VX-702) | IC50 (VX-702) [µM] | AUC (HG-5-113-01) | IC50 (HG-5-113-01) [µM] | AUC (BIRB 0796) | IC50 (BIRB 0796) [µM] | AUC (Shikonin) | IC50 (Shikonin) [µM]
OV-17R (ovary, adherent) | 0.877 | > 20 | 0.969 | > 4 | 0.977 | > 5 | 0.915 | > 10 | 0.98 | > 2 | 0.893 | > 10 | 0.876 | > 10 | – | –
OV-56 (ovary, adherent) | 0.974 | > 20 | 0.973 | > 4 | 0.968 | > 5 | 0.983 | > 10 | 0.986 | > 2 | 0.878 | 9.48 | 0.989 | > 10 | – | –
OVCA420 (ovary, adherent) | 0.932 | > 20 | 0.876 | > 4 | 0.982 | > 5 | 0.948 | > 10 | 0.982 | > 2 | 0.82 | 8.45 | 0.962 | > 10 | – | –
OVCA433 (ovary, adherent) | 0.957 | > 20 | 0.871 | > 4 | 0.979 | > 5 | 0.948 | > 10 | 0.984 | > 2 | 0.709 | 2.61 | 0.983 | > 10 | – | –
OVK-18 (ovary, adherent) | 0.977 | > 20 | 0.96 | > 4 | 0.858 | 4.85 | 0.956 | > 10 | 0.973 | > 2 | 0.811 | 6.01 | 0.96 | > 10 | – | –
PEO1 (ovary, adherent) | 0.971 | > 20 | 0.9 | > 4 | 0.985 | > 5 | 0.924 | > 10 | 0.987 | > 2 | 0.652 | 1.68 | 0.917 | > 10 | – | –
PWR-1E (prostate, adherent) | – | – | 0.843 | 2.81 | 0.926 | > 5 | 0.899 | > 10 | 0.973 | > 2 | 0.747 | 3.19 | 0.977 | > 10 | – | –
RCC-AB (kidney, adherent) | 0.827 | 17.7 | 0.969 | > 4 | 0.978 | > 5 | 0.918 | > 10 | 0.955 | > 2 | 0.883 | > 10 | 0.9 | > 10 | – | –
RCC-FG2 (kidney, adherent) | 0.978 | > 20 | 0.903 | > 4 | 0.965 | > 5 | 0.965 | > 10 | 0.963 | > 2 | 0.825 | 8.31 | 0.902 | > 10 | – | –
RCC-JF (kidney, adherent) | 0.843 | 16.8 | 0.93 | > 4 | 0.884 | > 5 | 0.875 | > 10 | 0.935 | > 2 | 0.754 | 3.75 | 0.877 | > 10 | – | –
RCC-JW (kidney, adherent) | 0.974 | > 20 | 0.979 | > 4 | 0.966 | > 5 | 0.932 | > 10 | 0.986 | > 2 | 0.758 | 3.57 | 0.975 | > 10 | – | –
SCC-4 (head and neck, adherent) | 0.984 | > 20 | 0.967 | > 4 | 0.945 | > 5 | 0.95 | > 10 | 0.983 | > 2 | 0.78 | 4.94 | – | – | 0.46 | 0.763
SK-CO-1 (large intestine, adherent) | 0.974 | > 20 | 0.852 | 2.83 | – | – | 0.886 | – | – | – | 0.69 | 2.05 | 0.978 | > 10 | 0.622 | 2.12
SK-GT-2 (stomach, adherent) | – | – | 0.978 | > 4 | 0.965 | > 5 | 0.971 | > 10 | 0.973 | > 2 | 0.729 | 2.91 | 0.961 | > 10 | – | –
SK-GT-4 (oesophagus, adherent) | 0.917 | > 20 | 0.936 | > 4 | 0.959 | > 5 | 0.972 | > 10 | 0.976 | > 2 | 0.837 | 9.17 | 0.889 | > 10 | – | –
TE-4 (oesophagus, adherent) | 0.976 | > 20 | 0.945 | > 4 | 0.987 | > 5 | 0.964 | > 10 | 0.982 | > 2 | 0.733 | 2.87 | 0.95 | > 10 | – | –
U-2-OS (osteosarcoma, adherent) | 0.98 | > 20 | 0.907 | > 4 | 0.98 | > 5 | 0.945 | > 10 | 0.959 | > 2 | 0.675 | 2.02 | – | – | 0.772 | 6.75
UWB1.289 (ovary, adherent) | 0.918 | > 20 | 0.96 | > 4 | – | – | – | – | 0.98 | > 2 | 0.856 | > 10 | 0.976 | > 10 | – | –
VMRC-MELG (melanoma, adherent) | 0.874 | > 20 | 0.923 | > 4 | 0.984 | > 5 | 0.988 | > 10 | 0.987 | > 2 | 0.917 | > 10 | – | – | 0.832 | 10.9
WM278 (melanoma, adherent) | 0.923 | > 20 | 0.877 | > 4 | 0.965 | > 5 | 0.977 | > 10 | 0.982 | > 2 | 0.805 | 5.83 | – | – | 0.439 | 0.668
